The source of these data is ChEMBL document CHEMBL4888484, “Replenishing the malaria drug discovery pipeline: Screening and hit evaluation of the MMV Hit Generation Library 1 (HGL1) against asexual blood stage Plasmodium falciparum ,using a nano luciferase reporter read-out” (2022).

SMILES strings stand for the structures. About 540 (0.36%) of roughly 150,000 compounds showed an effect of 50% or more. Some of the results follow.

Broadly, the % Inhibition is the drop in the measured response relative to a control, in per cent.

The test system of this assay is Plasmodium falciparum. Description: Primary screen in NF54 nanoGlo assay, in single point, at 2uM, 72h; a lower Z score goes with more inhibition. Particulars: timepoint 72 hour. The format is functional, Erythrocyte.
As for `Cc1ccoc1C(=O)Nc1ncccc1N1CCCCC1`, the “% Inhibition” value worked out at 8% and the Z score is given as -0.8.

For the molecule `C[C@@H](C(=O)Nc1nc(C(N)=O)cs1)N(C)CC(F)(F)F`, the “% Inhibition” value is recorded as -7% and the Z score came out at 1.15.

Consider `O=C(c1nn(Cc2ccccc2)c(=O)c2ccccc12)N1CCC[C@H]1c1ccc(O)cc1`, for which the “% Inhibition” value is given as 8% and the Z score is -1.33.

Regarding `COC(=O)c1cccc(C(=O)N2CCc3ccccc32)n1`, the “% Inhibition” value is reported as -13% and the Z score is reported as 1.91.

As for `Cc1ccc(-c2nc(C#N)c(S(=O)(=O)N3CCCC[C@@H]3C)o2)cc1`, the “% Inhibition” value is on record as -13% and the Z score was 1.76.

For the molecule `Clc1cccc2c1Oc1cccc3c1N2CCC3`, the “% Inhibition” value is 3% and the Z score is listed as -0.34.

As to `Cc1ccc(C(=O)N(C)C2CCCC2O)s1` (centres undefined), the “% Inhibition” value is given as -19% and the Z score is 2.45.

In the case of `O=C(Nc1ccc2c(c1)OCCO2)c1ccc(-n2nc(OCc3ccc(Cl)cc3)ccc2=O)cc1`, the “% Inhibition” value is recorded as -1% and the Z score worked out at 0.14.

`CC1(C)CCc2nnc(C(=O)N3CCCC3)n2C1`: the “% Inhibition” value was -21% and the Z score is 2.67.

In the case of `COCc1nc(CCc2ccncc2)n(CC(C)(C)O)n1`, the “% Inhibition” value is reported as -10% and the Z score was found to be 2.05.

`c1ccc2c(c1)CC(n1nc([C@H]3CCOC3)nc1-c1cnc[nH]1)C2`: the “% Inhibition” value is -13% and the Z score came out at 1.59.

On to `CCCc1nc(CNc2ccc(C)c(N3CCOC3=O)c2)cs1`, for which the “% Inhibition” value was 2% and the Z score is on record as -0.29.

For the molecule `O=C(NCc1nccc(N2CCCC2)n1)C1CCCCC1`, the “% Inhibition” value is -1% and the Z score turned out to be 0.22.

Consider `Cc1cnc(C2CC2)n1CC1CCN(C(=O)[C@H]2CCOC2)CC1`, for which the “% Inhibition” value is recorded as -2% and the Z score is on record as 0.24.

`Cc1cccc(C(=O)N2CCCCC[C@H]2c2nc(C)no2)c1`: the “% Inhibition” value is reported as -10% and the Z score worked out at 2.01.

In the case of `CN1CCC(CCNC(=O)c2cc(-c3ccccc3)nc3ncnn23)CC1`, the “% Inhibition” value is -34% and the Z score is 3.96.

With `COc1ccc(C(=O)N[C@@H]2CCC[C@@H]2C(=O)N2CCN(c3ccccn3)CC2)cc1`, the “% Inhibition” value was found to be 2% and the Z score is -0.22.

As to `COCCCN(C(=O)c1ccc(-c2ccccc2C)nc1N(C)C)C1CCN(C)CC1`, the “% Inhibition” value came to 1% and the Z score was -0.1.

Regarding `CC1(C)CCC[C@H](C(=O)NCc2nc(C(F)(F)F)cs2)C1`, the “% Inhibition” value is reported as -7% and the Z score came out at 1.24.

Turning to `Cc1cc(S(=O)(=O)N2CC(N(CC(C)C)C3CCOCC3)C2)ccc1F`, the “% Inhibition” value came to 8% and the Z score is listed as -1.51.

As to `CCOC(=O)Nc1nc2c(s1)CNCC2`, the “% Inhibition” value is listed as 19% and the Z score was -2.47.

Turning to `COc1ccc(CNS(=O)(=O)c2c(C)noc2C)cn1`, the “% Inhibition” value is -8% and the Z score amounted to 0.7.

As for `C#CCOC[C@@H](O)CN(Cc1cc(OC)cc(OC)c1)C(C)C`, the “% Inhibition” value was -12% and the Z score came to 1.62.

Regarding `O=C(Nc1cccc(Cc2ccccc2)c1)N1CC(N2CCOCC2)C1`, the “% Inhibition” value came to 2% and the Z score is given as -0.22.

For the molecule `CCn1ccnc1CN1CCCC12CCN(c1ccc3ncccc3c1)CC2`, the “% Inhibition” value was -8% and the Z score stood at 0.77.

As for `Cc1cc(CN(C)C(=O)NC2CCCCCCC2)n[nH]1`, the “% Inhibition” value was 7% and the Z score is recorded as -0.96.

On to `CC(C)c1ocnc1C(=O)N(CC(F)F)c1cccc(Cl)c1`, for which the “% Inhibition” value was 30% and the Z score is listed as -3.36.

On to `CN(Cc1ccncn1)Cc1cc(Cl)ccc1OC[C@@H](O)CN1CCCCCC1`, for which the “% Inhibition” value turned out to be 1% and the Z score is recorded as -0.18.

For the molecule `NC(=O)C(=O)N1CCC[C@@]2(CCC(=O)N(Cc3ccccc3)C2)C1`, the “% Inhibition” value was -1% and the Z score came to 0.12.

Turning to `Cc1ccc(-n2nc(N3CCCN(C(=O)c4cccc(C)c4)CC3)ccc2=O)cc1`, the “% Inhibition” value stood at 9% and the Z score was -1.07.

Turning to `CC(C)(C)c1nc2ccc(NC(=O)c3nc(=O)[nH][nH]3)cc2s1`, the “% Inhibition” value is -12% and the Z score is listed as 1.22.

In the case of `COc1ccc(S(=O)(=O)N2CC(C(=O)N3CCCC3)C(c3cc(OC)ccc3OC)C2)cc1` (centres undefined), the “% Inhibition” value is -17% and the Z score amounted to 1.58.

As to `O=C1c2ccccc2N[C@H](c2ccoc2)N1O`, the “% Inhibition” value is -46% and the Z score came out at 5.45.

For the molecule `COC(C)(C(=O)N1CCC(CNC(C)=O)C1)c1ccccc1F` (centres undefined), the “% Inhibition” value was 4% and the Z score is reported as -0.73.

With `COCCc1nc(CC(F)(F)F)n(-c2ccc(S(N)(=O)=O)cc2)n1`, the “% Inhibition” value came out at 0% and the Z score is given as -0.03.

With `C[C@H](NC(=O)OC(C)(C)C)c1noc(Cc2ccn[nH]2)n1`, the “% Inhibition” value turned out to be 2% and the Z score is listed as -0.3.

As for `O=C(c1cccc[n+]1[O-])N1CCc2[nH]c3c(Br)cccc3c2C1`, the “% Inhibition” value amounted to 12% and the Z score is reported as -1.42.

As for `O=C(NCC1CCC=CCC1)Nc1nnc(C2CCOCC2)s1`, the “% Inhibition” value is -4% and the Z score is listed as 0.52.

Consider `CCc1nc(CNC(=O)N2CCO[C@H](c3ccnn3C)C2)co1`, for which the “% Inhibition” value is reported as 5% and the Z score is recorded as -0.72.

As to `CC(C)C(=O)N(CCCN1CCCC1)[C@H]1CCN(S(=O)(=O)c2ccc(F)c(F)c2)C1`, the “% Inhibition” value turned out to be 0% and the Z score was -0.06.

In the case of `O=C([C@@H]1CC=CCC1)N1CCC(N2C(=O)COCC2=O)CC1`, the “% Inhibition” value came to 12% and the Z score was -1.62.

For the molecule `O=C1O[C@H]2CN(Cc3c(F)ccc(F)c3F)C[C@H]2N1Cc1ccccn1`, the “% Inhibition” value is -1% and the Z score is on record as 0.16.
